From PMC4336329 (PLoS ONE, 2015) come the findings set out here.

Each structure is given as a SMILES string. The campaign covered roughly 310,000 compounds. About 14,000 (4.5%) showed an effect of 50% or more. Effects have a minus sign here. Some of the results follow.
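Further: peak tail current of the secondary pulse compared with the same well before compound.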

The target of this assay is human ether-à-go-go-related gene (hERG) potassium channel (human, UniProt Q12809). Nature of the assay: primary screen, population patch clamp on CHO cells stably expressing hERG.
human ether-à-go-go-related gene (hERG) potassium channel, sequence (Q12809 whole entry, looked up): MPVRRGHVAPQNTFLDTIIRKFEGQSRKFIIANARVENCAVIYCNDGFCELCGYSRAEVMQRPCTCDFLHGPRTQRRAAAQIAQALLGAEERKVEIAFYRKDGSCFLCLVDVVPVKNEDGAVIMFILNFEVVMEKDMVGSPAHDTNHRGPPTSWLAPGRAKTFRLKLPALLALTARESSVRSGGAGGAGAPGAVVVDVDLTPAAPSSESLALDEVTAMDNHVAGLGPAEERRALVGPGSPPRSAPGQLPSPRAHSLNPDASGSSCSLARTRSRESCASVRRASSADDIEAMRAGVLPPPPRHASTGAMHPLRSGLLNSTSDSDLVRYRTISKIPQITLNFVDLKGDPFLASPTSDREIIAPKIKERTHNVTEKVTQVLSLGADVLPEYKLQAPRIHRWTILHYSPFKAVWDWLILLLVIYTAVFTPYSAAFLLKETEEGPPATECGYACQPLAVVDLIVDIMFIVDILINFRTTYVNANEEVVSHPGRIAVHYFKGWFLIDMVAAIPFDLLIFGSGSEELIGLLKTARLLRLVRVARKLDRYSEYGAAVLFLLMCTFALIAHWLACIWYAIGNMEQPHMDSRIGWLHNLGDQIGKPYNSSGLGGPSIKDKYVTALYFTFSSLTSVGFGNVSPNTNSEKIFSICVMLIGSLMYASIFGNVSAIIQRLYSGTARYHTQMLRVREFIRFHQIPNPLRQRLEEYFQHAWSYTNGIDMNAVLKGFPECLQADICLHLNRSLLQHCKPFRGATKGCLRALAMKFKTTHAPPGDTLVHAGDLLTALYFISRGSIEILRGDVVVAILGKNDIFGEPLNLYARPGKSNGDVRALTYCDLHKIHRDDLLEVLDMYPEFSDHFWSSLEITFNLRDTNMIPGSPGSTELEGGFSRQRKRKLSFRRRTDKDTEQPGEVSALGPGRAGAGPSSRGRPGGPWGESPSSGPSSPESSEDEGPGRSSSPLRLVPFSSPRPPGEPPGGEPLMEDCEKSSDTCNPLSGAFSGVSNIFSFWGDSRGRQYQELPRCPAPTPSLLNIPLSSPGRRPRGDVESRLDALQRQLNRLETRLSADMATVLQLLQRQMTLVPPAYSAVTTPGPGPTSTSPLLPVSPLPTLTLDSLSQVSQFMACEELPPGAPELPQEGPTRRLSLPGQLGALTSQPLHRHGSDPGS
As for `Cc1cccc(CNC(=O)Cn2ccc3cc(S(=O)(=O)N4CCCC4)ccc32)c1`, the “hERG current change (%, negative = inhibition) at 10uM” value came to 11.4%.

In the case of `CCCCCC(=O)Nc1nc(C)c(-c2csc(Nc3cc(Cl)ccc3OC)n2)s1`, the “hERG current change (%, negative = inhibition) at 10uM” value is listed as 16.8%.

For `COc1cccc(C2C(C(=O)c3cc4ccccc4o3)=C(O)C(=O)N2c2cc(C)on2)c1` (centres unmarked), the “hERG current change (%, negative = inhibition) at 10uM” value is 7.91%.

On to `O/N=C1\CC/C(=N\O)c2nn(-c3ccccc3Cl)nc21`, for which the “hERG current change (%, negative = inhibition) at 10uM” value was determined as 4.25%.

`CC(C)(C)OC(=O)NC(CNCc1ccccc1)Cc1ccccc1` (centres unmarked): the “hERG current change (%, negative = inhibition) at 10uM” value was -15%.

As for `O=C(NC1CCN(C(=O)Nc2ccc(F)cc2)CC1)c1cccc(F)c1`, the “hERG current change (%, negative = inhibition) at 10uM” value is on record as -16.1%.

Take `O=C(CN1c2ccccc2Sc2ccccc21)NNC(=S)Nc1ccc(Cl)cc1`: the “hERG current change (%, negative = inhibition) at 10uM” value turned out to be 15%.

In the case of `Cc1cc(C)c(C)c(C(=O)CSc2nnc(-c3ccc4[nH]c(C)c(C)c4c3)o2)c1C`, the “hERG current change (%, negative = inhibition) at 10uM” value is -1.56%.

Consider `CCc1ccc(OCC(=O)Nc2ccc(-c3nc4ccccc4o3)c(O)c2)cc1`, for which the “hERG current change (%, negative = inhibition) at 10uM” value is on record as 14.7%.

`Cc1ccc(C(=O)NC2CC2)cc1S(=O)(=O)N1CCOCC1`: the “hERG current change (%, negative = inhibition) at 10uM” value is -12.6%.

For `CCOc1c(C)cnc2c1c(=O)n(CC(=O)NCC1CCCO1)c(=O)n2C` (centres unmarked), the “hERG current change (%, negative = inhibition) at 10uM” value was found to be 10.1%.

With `C=C(C)C1CC=C(C)/C(=N\NC(=S)Nc2ccc(C)cc2)C1` (centres unmarked), the “hERG current change (%, negative = inhibition) at 10uM” value worked out at 7.06%.

Consider `CCOC(=O)c1ccc(NC(=O)c2cc(=O)[nH]c3ccccc23)cc1`, for which the “hERG current change (%, negative = inhibition) at 10uM” value came to 1.88%.

Regarding `CCOC(=O)N1CCN(S(=O)(=O)N2CCCC(C(=O)NCc3ccc(OC)cc3OC)C2)CC1` (centres unmarked), the “hERG current change (%, negative = inhibition) at 10uM” value is recorded as -23.1%.

As to `Cc1ccc(NC(=O)CSc2nnc(CNC(=O)c3ccco3)n2C)cc1`, the “hERG current change (%, negative = inhibition) at 10uM” value is 3.01%.

As for `O=C(CC1Sc2ccccc2NC1=O)Nc1cccnc1` (centres unmarked), the “hERG current change (%, negative = inhibition) at 10uM” value is on record as -4.19%.

Take `COc1cc(C(=O)N2CCN(c3ccccc3F)CC2)ccc1OCC(=O)N1CCOCC1`: the “hERG current change (%, negative = inhibition) at 10uM” value is given as -60.9%.

For the compound `CC(C)Cc1cc(C(=O)NCc2ccco2)no1`, the “hERG current change (%, negative = inhibition) at 10uM” value is on record as -29.8%.

Regarding `CCN1CCN(S(=O)(=O)c2ccc(Cl)c(C(=O)Nc3ccccc3N3CCCCC3)c2)CC1`, the “hERG current change (%, negative = inhibition) at 10uM” value worked out at 12.8%.

As to `Cc1ccc(NC(=O)CSc2nnc(-c3ccncc3)o2)cc1C`, the “hERG current change (%, negative = inhibition) at 10uM” value turned out to be 12.5%.

Consider `COc1ccc2nc(SCC(N)=O)[nH]c2c1`, for which the “hERG current change (%, negative = inhibition) at 10uM” value is on record as -2.83%.

Consider `CC(C)C[C@@]12C(=O)N(c3cccc(Cl)c3)C(=O)N1[C@H](c1ccc(Cl)cc1)[C@@H]1C(=O)N(C3CCCCC3)C(=O)[C@@H]12`, for which the “hERG current change (%, negative = inhibition) at 10uM” value was 11.2%.

Regarding `CCOCCCN(Cc1cc2cc(C)cc(C)c2[nH]c1=O)C(=O)N(CC)CC`, the “hERG current change (%, negative = inhibition) at 10uM” value is reported as -8.98%.
